This is an account of results in publication PMC4336329 (PLoS ONE, 2015).

The whole screen tested about 310,000 compounds, of which about 14,000 (4.5%) showed an effect of 50% or more. Effects have a minus sign here. The list shows a part of the results.
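Note: peak tail current of the secondary pulse compared with the same well before compound.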

human ether-à-go-go-related gene (hERG) potassium channel, sequence (Q12809 whole entry, looked up): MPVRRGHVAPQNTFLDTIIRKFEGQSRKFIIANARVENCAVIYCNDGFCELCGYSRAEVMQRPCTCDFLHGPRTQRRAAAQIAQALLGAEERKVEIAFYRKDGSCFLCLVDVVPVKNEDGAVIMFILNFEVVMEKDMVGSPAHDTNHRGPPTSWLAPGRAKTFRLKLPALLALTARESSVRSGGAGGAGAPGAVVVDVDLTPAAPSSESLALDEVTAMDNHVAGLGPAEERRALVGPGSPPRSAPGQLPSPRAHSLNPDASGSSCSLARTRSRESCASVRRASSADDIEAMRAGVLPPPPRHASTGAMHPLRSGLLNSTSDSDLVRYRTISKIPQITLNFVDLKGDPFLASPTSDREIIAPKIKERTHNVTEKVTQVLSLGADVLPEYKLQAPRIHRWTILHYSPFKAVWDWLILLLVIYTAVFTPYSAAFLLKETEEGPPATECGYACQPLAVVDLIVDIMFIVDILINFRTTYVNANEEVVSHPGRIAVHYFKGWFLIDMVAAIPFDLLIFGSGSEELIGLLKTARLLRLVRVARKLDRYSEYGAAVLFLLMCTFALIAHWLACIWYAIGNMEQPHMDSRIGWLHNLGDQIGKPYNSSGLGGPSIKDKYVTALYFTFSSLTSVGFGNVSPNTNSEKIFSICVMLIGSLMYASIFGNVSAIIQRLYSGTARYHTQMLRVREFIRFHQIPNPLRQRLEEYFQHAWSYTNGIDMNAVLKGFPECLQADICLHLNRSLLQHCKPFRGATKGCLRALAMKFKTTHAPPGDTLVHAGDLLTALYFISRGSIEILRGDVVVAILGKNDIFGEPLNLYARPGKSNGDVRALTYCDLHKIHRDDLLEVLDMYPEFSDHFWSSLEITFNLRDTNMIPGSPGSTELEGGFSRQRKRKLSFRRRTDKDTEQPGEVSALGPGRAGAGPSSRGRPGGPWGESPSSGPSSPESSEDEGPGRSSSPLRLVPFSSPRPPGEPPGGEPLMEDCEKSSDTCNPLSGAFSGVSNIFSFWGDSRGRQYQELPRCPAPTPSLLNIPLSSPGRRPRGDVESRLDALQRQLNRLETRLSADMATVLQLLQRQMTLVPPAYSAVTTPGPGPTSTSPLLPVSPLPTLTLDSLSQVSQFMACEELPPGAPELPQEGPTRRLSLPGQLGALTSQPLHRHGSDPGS

The experiment concerns the target human ether-à-go-go-related gene (hERG) potassium channel (human, UniProt Q12809). As to the kind of experiment: primary screen, population patch clamp on CHO cells stably expressing hERG.
Regarding `CCN(CC(=O)Nc1c(F)cccc1F)C(=O)CSC(=S)N1CCCC1`, the “hERG current change (%, negative = inhibition) at 10uM” value is on record as -2.91%.

Regarding `O=C(CNC(=O)Cn1cnc2sc3c(c2c1=O)CCCC3)NCc1ccccn1`, the “hERG current change (%, negative = inhibition) at 10uM” value is recorded as 9.49%.

Turning to `Cc1ccc(-n2nc(N)c3c(=O)oc(N(C)C)nc32)cc1`, the “hERG current change (%, negative = inhibition) at 10uM” value is -1.41%.

For the molecule `Cc1cc(C)c[n+](-c2nc3ccccc3nc2[N-]S(=O)(=O)c2ccc(Br)s2)c1`, the “hERG current change (%, negative = inhibition) at 10uM” value is given as -25.9%.

For the molecule `CC(C)c1ccc(Nc2nc(CC(=O)O)cs2)cc1`, the “hERG current change (%, negative = inhibition) at 10uM” value is on record as 9.04%.

Consider `CC1(C)CC[C@@]23CC[C@]4(C)[C@@](OC2=O)(C3C1)[C@H]1O[C@H]1C1[C@@]2(C)CC[C@H](O)C(C)(C)C2CC[C@]14C` (some centres unmarked), for which the “hERG current change (%, negative = inhibition) at 10uM” value is listed as 3.81%.

In the case of `Cc1cccc(OCc2nc(-c3nonc3N)no2)c1C`, the “hERG current change (%, negative = inhibition) at 10uM” value was found to be 1.57%.

For `Cc1cc(N)n2nc(-c3ccccc3)c(-c3ccccc3)c2n1`, the “hERG current change (%, negative = inhibition) at 10uM” value turned out to be 7.59%.

As for `O=C(CSC1=Nc2ccccc2C2=NC(Cc3c[nH]c4ccccc34)C(=O)N12)NC1CCCCC1` (centres unmarked), the “hERG current change (%, negative = inhibition) at 10uM” value is -20.5%.

As to `CC(=O)Nc1ccc(S(=O)(=O)NC2C3(C)CCC(C3)C2(C)C)cc1` (centres unmarked), the “hERG current change (%, negative = inhibition) at 10uM” value turned out to be 16.9%.

Take `COC(=O)c1ccc(C2C(Oc3ccc(OC)cc3)C(=O)N2CCc2ccc(OC)c(OC)c2)cc1` (centres unmarked): the “hERG current change (%, negative = inhibition) at 10uM” value is given as 0.881%.

As for `COc1ccccc1NC(=S)N(Cc1ccc(C)cc1)Cc1cccnc1`, the “hERG current change (%, negative = inhibition) at 10uM” value is on record as -37%.

On to `COCc1cc(=O)oc2cc(NC(=O)c3ccc(C(C)(C)C)cc3)ccc12`, for which the “hERG current change (%, negative = inhibition) at 10uM” value was determined as 13.7%.

`COc1cc(C(=O)N(c2ccc(C)c(C)c2)C2C=CS(=O)(=O)C2)cc(OC)c1OC` (centres unmarked): the “hERG current change (%, negative = inhibition) at 10uM” value is -20.9%.

Turning to `S=c1[nH]c(-c2ccccc2)cn1-c1ccccc1`, the “hERG current change (%, negative = inhibition) at 10uM” value was 13.6%.

Consider `COc1ccc(C(=O)NNC(=O)c2cc(C)[nH]n2)cc1`, for which the “hERG current change (%, negative = inhibition) at 10uM” value came out at 24.1%.

In the case of `CCN1CCN(C(=O)c2cc(COc3ccc(F)cc3F)on2)[C@@H](C)C1=O`, the “hERG current change (%, negative = inhibition) at 10uM” value was 0.18%.

Consider `Cn1cnnc1SCC(=O)Nc1ccc(F)cc1`, for which the “hERG current change (%, negative = inhibition) at 10uM” value is reported as 20%.

Regarding `COc1ccc(Br)c(-c2nc(CS(=O)(=O)c3ccc(F)cc3)no2)c1`, the “hERG current change (%, negative = inhibition) at 10uM” value was -3.08%.

On to `CCOC(=O)Cn1cnc2c(nnn2Cc2ccc(Cl)cc2)c1=O`, for which the “hERG current change (%, negative = inhibition) at 10uM” value is 3.06%.

Regarding `CC1(C)CC2CC(C)(CN2C(=O)COC(=O)c2cccc(O)c2)C1` (centres unmarked), the “hERG current change (%, negative = inhibition) at 10uM” value stood at 6.76%.

For the molecule `CC(=O)N1c2ccccc2Sc2ccccc21`, the “hERG current change (%, negative = inhibition) at 10uM” value is 14.7%.

Regarding `CC(NC(=O)[C@H](C)NC(=O)N1CCn2c1nc1ccccc12)c1ccccc1` (some centres unmarked), the “hERG current change (%, negative = inhibition) at 10uM” value amounted to 6.21%.

As for `CN(C)CCCN1C(=O)CSC1c1ccc([N+](=O)[O-])cc1.Cl` (centres unmarked), the “hERG current change (%, negative = inhibition) at 10uM” value is -46%.

Consider `O=C(CN(C(=O)c1csnn1)c1ccccc1)NCCc1ccccc1`, for which the “hERG current change (%, negative = inhibition) at 10uM” value is given as -15%.

As to `Clc1ccc(CNCCc2ccc3c(c2)OCO3)cc1.O=C(O)C(=O)O`, the “hERG current change (%, negative = inhibition) at 10uM” value was -56.1%.

As for `CCOc1ccc(CNC(=O)CCC(=O)n2ncc3ccc(Cl)cc32)cc1`, the “hERG current change (%, negative = inhibition) at 10uM” value is -1.82%.

For the molecule `CC(=O)c1cccc(NC(=O)Nc2ccccc2)c1`, the “hERG current change (%, negative = inhibition) at 10uM” value is recorded as 18.1%.

Turning to `O=C(CCC(=O)N(CC(=O)NC1CCCC1)C1CCCCC1)Nc1ccccn1`, the “hERG current change (%, negative = inhibition) at 10uM” value amounted to 4.95%.

For `O=C1NC(=O)N(Cc2ccccc2)C(=O)/C1=C\c1ccco1`, the “hERG current change (%, negative = inhibition) at 10uM” value worked out at 33.4%.

For the molecule `CCN(CC(=O)N1CCCC1)S(=O)(=O)c1ccccc1`, the “hERG current change (%, negative = inhibition) at 10uM” value worked out at 18.3%.

On to `COc1ccccc1NC(=S)Nc1ccc2cn[nH]c2c1`, for which the “hERG current change (%, negative = inhibition) at 10uM” value was found to be 4.79%.

On to `Nc1ccn(CC(=O)NCc2ccccn2)c(=O)n1`, for which the “hERG current change (%, negative = inhibition) at 10uM” value is on record as 8.3%.

In the case of `Cn1c(C(=O)N2CCN(c3ncccn3)CC2)cc2c(=O)n(C)c3ccccc3c21`, the “hERG current change (%, negative = inhibition) at 10uM” value is given as -15.6%.

In the case of `CC(C)(C)c1ccc(C(=O)NCCC(=O)N2CCC3(CC2)NCCc2[nH]cnc23)cc1`, the “hERG current change (%, negative = inhibition) at 10uM” value is reported as 15.4%.

Regarding `Cn1c(CNC(=O)CCNC(=O)c2cccc(Br)c2)cc(=O)n(C)c1=O`, the “hERG current change (%, negative = inhibition) at 10uM” value worked out at 4.99%.

On to `COc1ccc(NC2=C(c3ccc(OC)cc3)C(=O)c3ccccc32)cc1`, for which the “hERG current change (%, negative = inhibition) at 10uM” value was -4.91%.

In the case of `CC(=O)CSc1cc(-c2ccccc2)nc2ncnn12`, the “hERG current change (%, negative = inhibition) at 10uM” value is 3.44%.

Turning to `Cc1ccc2cc(C#N)c(NCCNC(=S)NCCCN3CCOCC3)nc2c1`, the “hERG current change (%, negative = inhibition) at 10uM” value is reported as -36.7%.

For the molecule `O=Cc1cc([N+](=O)[O-])ccc1N1CCOCC1`, the “hERG current change (%, negative = inhibition) at 10uM” value is recorded as -19.3%.

Consider `CCN1CCN(C(=O)c2ccc(Cl)c(S(=O)(=O)N3CCOCC3)c2)CC1`, for which the “hERG current change (%, negative = inhibition) at 10uM” value is reported as -0.549%.

With `COC(=O)c1c(NC(=O)c2c(-c3ccccc3Cl)noc2C)sc2c1CCC2`, the “hERG current change (%, negative = inhibition) at 10uM” value amounted to 6.14%.

With `CC(C)N(Cc1nccn1C)C(=O)c1cc(COc2cccc(C(F)(F)F)c2)on1`, the “hERG current change (%, negative = inhibition) at 10uM” value is on record as -21.8%.

For the molecule `COc1cccc(N2CCN(S(=O)(=O)c3c(C)[nH]c(C)c3C(=O)N3CCCCC3)CC2)c1`, the “hERG current change (%, negative = inhibition) at 10uM” value turned out to be 6.04%.
